{"source": "PubChem BioAssay AID463173", "about": "(ICCB-Longwood Screening Facility, Harvard Medical School, 2010)", "note": "Hit rate of the full screen: of about 52,000 compounds, about 4,300 (8.3%) were called active. No stated cut-off is given here; in the data, active means survival mostly below about 52% (no sharp cut-off); inactive means mostly above about 56%. The list shows a part of the results."}
{"tested_on": "DeltatarO mutant", "assay": "growth inhibition of S. aureus wild type versus tarO mutant, primary screen, teichoic acid synthesis inhibitors, RN4220, OD600 (AID 463173)", "conditions": "OD600, 18 h, hits give low values, screened at 18.75 µg/mL (by protocol)"}
{"compound": "Cc1ccc(OCC(=O)Nc2cccc(C(=O)OCc3cc(=O)n4c(C)csc4n3)c2)cc1", "survival": "inactive: 89%"}
{"compound": "Cc1cccc(NC(=O)CSc2nnc(CSc3nc(C)cc(C)n3)o2)c1", "survival": "inactive: 87%"}
{"compound": "Cc1ccccc1OCC(=O)OCc1cc(=O)n2nc(-c3cccs3)sc2n1", "survival": "inactive: 87%"}
{"compound": "COc1ccccc1CNC(=O)c1nnn(CC(=O)Nc2c(C)cccc2C)c1N", "survival": "inactive: 92%"}
{"compound": "Cn1c(C(=O)Nc2ccc(OC(F)(F)F)cc2)cc2c(=O)n3ccccc3nc21", "survival": "active: 55%"}
{"compound": "Cc1ccc(CNC(=O)CN2N=C(c3ccccc3)CCC2=O)cc1", "survival": "inactive: 89%"}
{"compound": "CC(=O)c1ccc(N2CCN(c3ncnc4c3cnn4-c3cc(Cl)ccc3C)CC2)cc1", "survival": "inactive: 122%"}
{"compound": "CCOc1ccc2oc(=O)cc(CN3CCN(c4ccccc4OC)CC3)c2c1", "survival": "inactive: 77%"}
{"compound": "CCc1ccc(OCc2cc(=O)n3cc(C)sc3n2)cc1", "survival": "inactive: 76%"}
{"compound": "COc1cc(OC)c(OC)cc1CNCCCSc1nnnn1C", "survival": "inactive: 87%"}
{"compound": "COc1cccc(NC(=O)Cn2c(=O)n(CCc3ccc(OC)c(OC)c3)c(=O)c3ccccc32)c1", "survival": "inactive: 84%"}
{"compound": "COc1ccc(C(=O)N(Cc2cc(OC)c(OC)c(OC)c2)C2CCS(=O)(=O)C2)cc1Cl", "note": "(stereo unspecified)", "survival": "inactive: 58%"}
{"compound": "CCc1ccc(NCc2cc3ccc(OC)cc3n(CC(=O)Nc3ccc(C)c(Cl)c3)c2=O)cc1", "survival": "inactive: 86%"}
{"compound": "Cc1cc(C)cc(N(CC(=O)NCc2ccco2)S(C)(=O)=O)c1", "survival": "inactive: 83%"}
{"compound": "O=C(CN1C(=O)COc2ccc(S(=O)(=O)N3CCOCC3)cc21)N1CCN(c2ccccc2F)CC1", "survival": "inactive: 85%"}
{"compound": "Cc1nn(-c2ccccc2)c2[nH]c(=O)c(CNCc3cccnc3)cc12", "survival": "inactive: 102%"}
{"compound": "CC(=O)Nc1ccc(C(=O)N2CC(C)OC(C)C2)cc1", "note": "(stereo unspecified)", "survival": "inactive: 82%"}
{"compound": "Cc1ccc(NC(=O)C(=O)NCC2(c3ccccc3)CCCC2)cc1C", "survival": "inactive: 98%"}
{"compound": "CCCOc1ccc(CNC(=O)CN2C(=O)c3cccnc3Oc3ccc(C)cc32)cc1", "survival": "inactive: 85%"}
{"compound": "COc1ccc(S(=O)(=O)N/N=C(/C2CCCCC2)C(F)(F)F)cc1", "survival": "active: 35%"}
{"compound": "CSc1nc(C)cc(C)c1C(N)=O", "survival": "inactive: 93%"}
{"compound": "O=C(NCCCO)c1nn(-c2ccc(Cl)cc2)nc1CO", "survival": "inactive: 80%"}
{"compound": "COC(=O)C1CCN(c2csc3ccc(Cl)cc3c2=O)CC1", "survival": "inactive: 85%"}
{"compound": "CCOC(=O)c1c(S(=O)(=O)N2CCC(C(=O)N3CCN(c4ccc(F)cc4)CC3)CC2)c(C)n(C)c1C", "survival": "inactive: 83%"}
{"compound": "CCn1nnc2cc(C(=O)Nc3ccc(Br)cc3F)ccc21", "survival": "inactive: 76%"}
{"compound": "NCCCSC1=NCCCN1", "survival": "inactive: 100%"}
{"compound": "Cn1c(=O)c2c(SCC(=O)N3CCc4ccccc43)nc(-c3ccc(Cl)cc3)nc2n(C)c1=O", "survival": "inactive: 113%"}
{"compound": "Cc1ccc(NC(=O)C2CCCN2S(=O)(=O)c2ccc3c(c2)n(C)c(=O)c(=O)n3C)cc1C", "note": "(stereo unspecified)", "survival": "inactive: 115%"}
{"compound": "O=C1N(Cc2ccccc2)c2ccccc2C1(O)c1c[nH]c2ccccc12", "note": "(stereo unspecified)", "survival": "inactive: 55%"}
{"compound": "CCCCn1c(=N)n(CCOc2ccccc2OC)c2ccccc21", "survival": "inactive: 56%"}
{"compound": "CC(=O)OC1OCCOC1NC(=S)Nc1ccc(C)cc1", "note": "(stereo unspecified)", "survival": "inactive: 106%"}
{"compound": "CC(C)Oc1ccc(CNC(=O)Cn2nc(N3CCN(c4ccccc4)CC3)ccc2=O)cc1", "survival": "inactive: 86%"}
{"compound": "Cn1cc(S(=O)(=O)N2CCOCC2)cc1C(=O)Nc1cccc(C#N)c1", "survival": "inactive: 87%"}
{"compound": "CC(C)c1ccc(CNc2n[nH]c(-c3ccco3)n2)cc1", "survival": "inactive: 80%"}
{"compound": "COCCNC(=O)C1=CC(c2ccc3c(c2)OCO3)=NS(=O)(=O)N1C", "survival": "inactive: 103%"}
{"compound": "COc1ccc(C2c3c(n(C)c4ccccc34)C(=O)N2CC(=O)Nc2ccc(F)cc2)cc1", "note": "(stereo unspecified)", "survival": "inactive: 91%"}
{"compound": "Cc1ccc(CSc2nc(-c3ccccc3C)nc3c2Cc2c(CO)cnc(C)c2O3)cc1", "survival": "inactive: 58%"}
{"compound": "CCOc1ccc(-c2nc(SCC(=O)Nc3cc(F)ccc3F)n3[nH]c(=O)cc3n2)cc1", "survival": "inactive: 91%"}
{"compound": "CCC1CN(C(=O)NCc2ccc(C)cc2)c2cc(C)ccc2O1", "note": "(stereo unspecified)", "survival": "inactive: 54%"}
{"compound": "O=S(=O)(NCc1ccccc1)c1cccs1", "survival": "inactive: 109%"}
{"compound": "COc1ccc(C(=O)N(CC(=O)NC2CCCC2)Cc2ccc3c(c2)OCO3)cc1OC", "survival": "inactive: 60%"}
{"compound": "Cc1nn(S(=O)(=O)c2ccc(C(C)C)cc2)c(C)c1S(=O)(=O)N1CCCCCC1", "survival": "inactive: 84%"}
{"compound": "CCCCCn1c(=O)[nH]c2cc(C(=O)Nc3cc(OC)cc(OC)c3)ccc2c1=O", "survival": "inactive: 76%"}
{"compound": "Cc1cccc(CNC(=O)C2CCCN(S(=O)(=O)c3cn(C)cn3)C2)c1", "note": "(stereo unspecified)", "survival": "inactive: 92%"}
{"compound": "COc1ccccc1CNC(=O)CCn1c(=O)c2ccccc2n(CC(=O)Nc2ccc(C)cc2)c1=O", "survival": "inactive: 92%"}
{"compound": "Cn1nnnc1SCCCNCc1ccc(-c2ccc(Br)cc2)o1", "survival": "active: 32%"}
{"compound": "NNC1=NC2CS(=O)(=O)CC2S1", "note": "(stereo unspecified)", "survival": "inactive: 56%"}
{"compound": "Cc1ccc2oc(=O)c3cc(C(=O)N4CCN(c5ccccc5)CC4)sc3c2c1", "survival": "inactive: 65%"}
{"compound": "COC(=O)c1cc2oc3ccccc3c2n1Cc1cccc(C)c1", "survival": "active: 31%"}
{"compound": "CN(C)S(=O)(=O)c1ccc2c(c1)N(CC(=O)NCc1ccccc1)C(=O)C1CCCCN21", "note": "(stereo unspecified)", "survival": "inactive: 67%"}
{"compound": "S=C(NCc1ccco1)NC1CCCCC1", "survival": "inactive: 97%"}
{"compound": "Cc1ccccc1CCNC(=O)c1ccc2c(c1)c(C)c(C)n2C", "survival": "inactive: 71%"}
{"compound": "Cc1ccc(C)c(N2CCN(C(=O)c3cc4ccc5cccnc5c4[nH]3)CC2)c1", "survival": "inactive: 95%"}
{"compound": "Cc1cc(C)cc(NC(=O)CN2C(=O)CSc3ccc(S(=O)(=O)N(C)C)cc32)c1", "survival": "inactive: 75%"}
{"compound": "CCOC(=O)c1c(C)oc2ncnc(Nc3ccc(F)cc3Cl)c12", "survival": "inactive: 113%"}
{"compound": "O=S1(=O)N=C(NNS(=O)(=O)c2ccccc2)c2ccccc21", "survival": "inactive: 103%"}
{"compound": "COc1ccc(-c2nsc(NC(=O)COc3ccc(C)c(C)c3)n2)cc1", "survival": "inactive: 65%"}
{"compound": "CCc1ccccc1NC(=O)C1(S(=O)(=O)c2ccc(Cl)cc2)CC1", "survival": "active: 90%"}
{"compound": "O=C(NC1CC(=O)N(c2ccc(F)cc2)C1)c1cccs1", "note": "(stereo unspecified)", "survival": "inactive: 86%"}
{"compound": "Cc1ccc(C)c2[nH]c(=O)c(C(c3nnnn3Cc3ccccc3)N3CCN(C)CC3)cc12", "note": "(stereo unspecified)", "survival": "inactive: 91%"}
{"compound": "Cc1ccn2c(Nc3ccc(F)cc3)c(-c3ccc(C)o3)nc2c1", "survival": "inactive: 99%"}
{"compound": "Cc1ccc2cc(C#N)c(NCc3ccccc3)nc2c1", "survival": "inactive: 99%"}
{"compound": "COc1ccc(CNC(=O)C2CCN(c3nc4ccccc4[nH]3)CC2)c(OC)c1", "survival": "inactive: 124%"}
{"compound": "CC(=O)N(Cc1cc2cc(C)c(C)cc2n2nnnc12)CC1COCCO1", "note": "(stereo unspecified)", "survival": "inactive: 92%"}
{"compound": "COc1cc(CN(C(=O)COc2ccc(Br)cc2)c2ccccn2)cc(OC)c1OC", "survival": "inactive: 60%"}
{"compound": "COc1ccc(-c2oc3ncn4nc(-c5cccc(C)c5)nc4c3c2-c2ccc(OC)cc2)cc1", "survival": "inactive: 72%"}
{"compound": "Cc1ccc(CN2C(=O)c3ccccc3Sc3ccc(C(=O)NC4CCCCC4)cc32)cc1", "survival": "inactive: 100%"}
{"compound": "COc1cc(C(=O)Nc2nnc(S(=O)(=O)N(C)c3ccccc3)s2)cc(OC)c1OC", "survival": "active: 40%"}
{"compound": "COc1ccccc1CNC(=O)CS(=O)(=O)c1cccc2nsnc12", "survival": "inactive: 68%"}
{"compound": "COc1cc(C(=O)NCC(c2ccc(N(C)C)cc2)N2CCc3ccccc32)cc(OC)c1OC", "note": "(stereo unspecified)", "survival": "inactive: 101%"}
{"compound": "Cc1ccc(-c2nc3n(n2)C(c2ccccc2C)C=C(c2ccc(Cl)cc2)N3)cc1", "note": "(stereo unspecified)", "survival": "inactive: 126%"}
{"compound": "COc1ccc(OC)c(NC(=O)CCn2cnnn2)c1", "survival": "inactive: 80%"}
{"compound": "COc1ccc(CCNC(=O)c2cc(-c3ccc(C)cc3)nc3n[nH]c(-c4ccccc4)c23)cc1OC", "survival": "inactive: 107%"}
{"compound": "COc1ccc(CNC(=O)c2cc3c(=O)[nH]c4ccc(C)cc4c3s2)c(OC)c1", "survival": "active: 44%"}
{"compound": "O=c1oc(-c2cccc3ncccc23)nn1Cc1ccccc1F", "survival": "inactive: 102%"}
{"compound": "O=C(O)CCN(C(=O)C1C2C=CC(C2)C1C(=O)O)c1ccccc1", "note": "(stereo unspecified)", "survival": "inactive: 67%"}
{"compound": "CCCSc1nc2sc3c(c2c(=O)n1-c1ccccc1)CCC(C)C3", "note": "(stereo unspecified)", "survival": "active: 2%"}
{"compound": "Cc1cc(NC(=O)CSc2nc(-c3ccccc3F)nc3c2c(=O)n(C)c(=O)n3C)no1", "survival": "inactive: 86%"}
{"compound": "COC(=O)c1cccc(NC(=O)C2CCN(S(=O)(=O)Cc3ccccc3)CC2)c1C", "survival": "inactive: 77%"}
{"compound": "CCCCOc1ccc(OC(=O)c2sc3ncn(Cc4cccc(F)c4)c(=O)c3c2C)cc1", "survival": "inactive: 83%"}
{"compound": "COc1cc2nc(SCc3ccc(Cl)cc3)n3nc(CCn4nc(C)cc4C)nc3c2cc1OC", "survival": "inactive: 86%"}
{"compound": "Cc1nn(C(=O)c2ccc(Cl)cc2)c(C)c1Sc1ccc(Cl)cc1", "survival": "active: 51%"}
{"compound": "CC(=O)c1sc2c(c1C)c(=O)n(-c1ccc(Cl)cc1)c(=O)n2Cc1cc(=O)n2cc(Cl)ccc2n1", "survival": "inactive: 58%"}
{"compound": "O=C(Nc1ccc(Br)cc1)c1ccc2c3c(onc13)-c1ccccc1C2=O", "survival": "inactive: 72%"}
{"compound": "COc1ccc2oc(=O)c(-c3csc(/C(C#N)=C/c4ccc(F)cc4)n3)cc2c1", "survival": "inactive: 76%"}
{"compound": "COC(=O)C1=C(CN(C)CCc2ccc(OC)c(OC)c2)NC(=O)NC1c1cccc(OC)c1", "note": "(stereo unspecified)", "survival": "inactive: 80%"}
{"compound": "CCOc1ccc(NC(=O)Cn2c(=O)n(-c3ccc(C)cc3)c(=O)c3cc(OC)c(OC)cc32)cc1", "survival": "inactive: 92%"}
{"compound": "COc1ccccc1N1CCN(C(=O)C2CCN(S(=O)(=O)c3cnc[nH]3)CC2)CC1", "survival": "inactive: 99%"}
{"compound": "CCOC(=O)c1c(NC(C)=O)c2c3c(sc2n1Cc1nc(-c2ccccc2OCC)oc1C)CCCC3", "survival": "inactive: 79%"}
{"compound": "CCCCCn1nc(C)c(/C=N\\NC(=O)c2cccs2)c1C", "survival": "inactive: 69%"}
{"compound": "COc1cccc(NC(=O)Cn2cc(C(=O)C3CCCCC3)c3ccccc32)c1", "survival": "inactive: 79%"}
